Tested on: Puccinia recondita—PUCCRT
Assay: Brown Rust of Wheat, in vivo whole plant, 24 Hour Protectant
Conditions: not given

With `CON=C(c1ccc(NC(=O)c2nccc(OC)c2OC(C)=O)cc1)c1cccc(C(F)(F)F)c1` [Compound 707] the “PUCCRT in vivo 1 Day Protectant” value was “+ (key: ++: at least 75-100% control of fungal infection; +: 25-74% control of fungal infection; −: <25% control of fungal infection)”.
With `COCCC(=O)Oc1c(OC)ccnc1C(=O)Nc1ccc(C(=NOC)c2cccc(C(F)(F)F)c2)cc1` [Compound 708] the “PUCCRT in vivo 1 Day Protectant” value was “− (key: ++: at least 75-100% control of fungal infection; +: 25-74% control of fungal infection; −: <25% control of fungal infection)”.

Tested on: Septoria tritici—SEPTTR
Assay: Leaf Blotch of Wheat, in vivo whole plant, 24 Hour Protectant
Conditions: not given

In the case of `CON=C(c1ccc(NC(=O)c2nccc(OC)c2OC(C)=O)cc1)c1cccc(C(F)(F)F)c1` [Compound 707], the “SEPTTR in vivo 1 Day Protectant” value was “+ (key: ++: at least 75-100% control of fungal infection; +: 25-74% control of fungal infection; −: <25% control of fungal infection)”.
`COCCC(=O)Oc1c(OC)ccnc1C(=O)Nc1ccc(C(=NOC)c2cccc(C(F)(F)F)c2)cc1` [Compound 708] was tested, and the “SEPTTR in vivo 1 Day Protectant” value was “+ (key: ++: at least 75-100% control of fungal infection; +: 25-74% control of fungal infection; −: <25% control of fungal infection)”.

Tested on: Leptosphaeria nodorum—LEPTNO
Assay: Glume Blotch of Wheat, in vivo whole plant, 24 Hour Protectant
Conditions: not given

For `CON=C(c1ccc(NC(=O)c2nccc(OC)c2OC(C)=O)cc1)c1cccc(C(F)(F)F)c1` [Compound 707], the “LEPTNO in vivo 1 Day Protectant” value was “− (key: ++: at least 75-100% control of fungal infection; +: 25-74% control of fungal infection; −: <25% control of fungal infection)”.
In the case of `COCCC(=O)Oc1c(OC)ccnc1C(=O)Nc1ccc(C(=NOC)c2cccc(C(F)(F)F)c2)cc1` [Compound 708], the “LEPTNO in vivo 1 Day Protectant” value was “+ (key: ++: at least 75-100% control of fungal infection; +: 25-74% control of fungal infection; −: <25% control of fungal infection)”.

Tested on: Plasmopara viticola—PLASVI
Assay: whole plant or invertebrate
Format: in vivo
Conditions: 100 ppm, grape, 24 hour protectant; control of fungal infection vs untreated plants

With `COc1ccnc(C(=O)NC(COC(=O)CCc2ccccc2)C(=O)OC(C)COC(=O)C(C)C)c1O` (centres unmarked) [Compound 359] the “PLASVI in vivo 1 Day Protectant” value was “+ (25-74% control of fungal infection)”.

Same assay, conditions: Plasmopara, 24 h, read-out: PLASVI in vivo 1 Day Protectant, 100 ppm, 24 hour protectant, grape; control of fungal infection vs untreated plants

First: O=C(NCc1cccc(Cl)c1)c1ncccc1O [Compound 219]
Second: COc1ccc(CNC(=O)c2ncccc2O)cc1 [Compound 226]
The pest or weed control at 100 ppm of the first is higher: 25 to 74% for the first, under 25% for the second.

First: COc1ccnc(C(=O)NC2C(=O)c3ccc(-c4ccco4)cc3OC2C)c1O (centres unmarked) [Compound 323]
Second: COc1ccnc(C(=O)NC2CSCC(c3ccccc3)C2)c1O (centres unmarked) [Compound 324]
The pest or weed control at 100 ppm of the first is lower: under 25% for the first, 25 to 74% for the second.

`O=C(NCC1CCCCC1)c1ncccc1O` [Compound 202] and `CC(=O)OC1CCC(NC(=O)c2ncccc2O)CC1` (centres unmarked) [Compound 209] cannot be ordered by pest or weed control at 100 ppm: under 25% for the first, under 25% for the second.

First: Cc1cc(C)cc(NC(=O)c2ncccc2O)c1 [Compound 215]
Second: C[C@@H](NC(=O)c1ncccc1O)c1cccc2ccccc12 [Compound 231]
The pest or weed control at 100 ppm of the first is lower: under 25% for the first, 25 to 74% for the second.

First: COc1ccnc(C(=O)N[C@@H]2CC3CC2C[C@@H]3COCc2cccc(C(F)(F)F)c2)c1O (some centres unmarked) [Compound 297]
Second: COc1ccnc(C(=O)N[C@@H]2CC3CC2[C@@H](C(=O)OCCc2ccccc2)[C@H]3C(=O)OCC(C)C)c1O (some centres unmarked) [Compound 301]
The pest or weed control at 100 ppm of the first is higher: 25 to 74% for the first, under 25% for the second.

Same assay, conditions: Plasmopara, 24 h, read-out: PLASVI in vivo 1 Day Protectant, 100 ppm, grape, 24 hour protectant, % control of fungal infection vs untreated plants

First: COc1ccnc(C(=O)N[C@H]2COC(=O)[C@H](Cc3ccccc3)[C@@H](OC(=O)C(C)C)[C@H](C)OC2=O)c1OS(C)(=O)=O [Compound 721]
Second: COc1ccnc(C(=O)Nc2ccc(C(=O)Oc3cccc(C(F)(F)F)c3)cc2)c1OC(C)=O [Compound 715]
The pest or weed control at 100 ppm of the first is lower: under 25% for the first, 25 to 74% for the second.

Same assay, conditions: Plasmopara, 24 h, read-out: PLASVI in vivo 1 Day Protectant, 100 ppm, grape, 24 hour protectant; control of fungal infection vs untreated plants

`COc1ccnc(C(=O)NC2COC(=O)C[C@H](NC(=O)OCc3ccccc3)C(=O)OC2)c1O` (some centres unmarked) [Compound 376] and `COc1ccnc(C(=O)N[C@H]2COC(=O)[C@H](Cc3ccccc3)[C@@H](O)[C@H](C)OC2=O)c1O` [Compound 383] fall in the same range of pest or weed control at 100 ppm: 25 to 74% for the first, 25 to 74% for the second.

`CCCCCCCCCCCCCCCCCC(=O)O[C@H]1[C@H](C)OC(=O)[C@@H](NC(=O)c2nccc(OC)c2O)COC(=O)[C@@H]1Cc1ccccc1` [Compound 398] and `COc1ccnc(C(=O)N[C@H]2COC(=O)[C@H](Cc3ccccc3)[C@@H](OC(=O)C(C)(C)C)[C@H](C)OC2=O)c1O` [Compound 388] cannot be ordered by pest or weed control at 100 ppm: under 25% for the first, under 25% for the second.

`COc1ccnc(C(=O)N[C@H]2COC(=O)[C@H](Cc3ccccc3)[C@@H](OC(=O)OC(C)C)[C@H](C)OC2=O)c1O` [Compound 401] and `COc1ccnc(C(=O)N[C@H]2COC(=O)[C@H](Cc3ccccc3)[C@@H](OC(=O)C3C(C)CCCC3C)[C@H](C)OC2=O)c1O` (some centres unmarked) [Compound 393] cannot be ordered by pest or weed control at 100 ppm: under 25% for the first, under 25% for the second.

`COc1ccnc(C(=O)Nc2ccccc2Oc2ccc(C)cc2)c1O` [Compound 411] and `COc1ccnc(C(=O)Nc2ccc(Oc3cccc(Cl)c3)cc2)c1O` [Compound 442] cannot be ordered by pest or weed control at 100 ppm: under 25% for the first, under 25% for the second.

`COC(=O)C(CO)NC(=O)c1nccc(OC)c1O` (centres unmarked) [Compound 340] and `COC(=O)C(COC(=O)CCc1ccccc1)NC(=O)c1nccc(OC)c1O` (centres unmarked) [Compound 344] cannot be ordered by pest or weed control at 100 ppm: under 25% for the first, under 25% for the second.

First: COc1ccnc(C(=O)N[C@@H]2[C@@H](O)[C@H](O)[C@@H](CO)O[C@@H]2O)c1O [Compound 334, N-(3-HYDROXY-4-METHOXY-2-PYRIDYLCARBONYL)-2-AMINO-2-DEOXY-alpha-D-GLUCOPYRANOSE]
Second: COc1ccnc(C(=O)Nc2cccc(Oc3cccc(C)c3)c2)c1O [Compound 413]
The pest or weed control at 100 ppm of the first is lower: under 25% for the first, 25 to 74% for the second.

`CO/N=C(/c1ccc(NC(=O)c2nccc(OC)c2O)cc1)c1cccc(C(F)(F)F)c1` [Compound 408] and `COc1ccnc(C(=O)Nc2ccc(Oc3cccc(C(F)(F)F)c3)cc2)c1O` [Compound 424] fall in the same range of pest or weed control at 100 ppm: 25 to 74% for the first, 25 to 74% for the second.

`COc1ccnc(C(=O)Nc2ccc(Oc3cccc(C#N)c3)cc2)c1O` [Compound 421] was tested, and the pest or weed control at 100 ppm was under 25%.

Same assay, conditions: Plasmopara, 24 h, read-out: PLASVI in vivo 1 Day Protectant, grape plants, 100 ppm, 24 hour protectant; control of fungal infection vs untreated plants

`COc1ccc(C(C)NC(=O)c2ccncc2O)cc1` (centres unmarked) [Compound 508] and `CC(NC(=O)c1ccncc1O)c1ccc(Cl)cc1` (centres unmarked) [Compound 509] fall in the same range of pest or weed control at 100 ppm: 25 to 74% for the first, 25 to 74% for the second.

First: COc1ccnc(C(=O)NC2CC(C)(C)/C=C\CC(C)(C)C2)c1OC(C)=O (centres unmarked) [Compound 580]
Second: COc1ccnc(C(=O)NC2CC(C)(C)C=CC=C2C)c1OC(C)=O (centres unmarked) [Compound 579]
The pest or weed control at 100 ppm of the first is lower: under 25% for the first, 25 to 74% for the second.

`CC(NC(=O)c1ccncc1O)c1ccc(C(F)(F)F)cc1` (centres unmarked) [Compound 510] and `COc1ccnc(C(=O)Nc2ccc(Oc3ccc(C(F)(F)F)cc3)nc2)c1O` [Compound 472] cannot be ordered by pest or weed control at 100 ppm: under 25% for the first, under 25% for the second.

First: COC(=O)C(COC(=O)C(COC(=O)C(C)C)Cc1ccccc1)NC(=O)c1nccc(OC)c1OC(C)=O (centres unmarked) [Compound 587]
Second: COC(=O)C(COC(=O)CCc1ccccc1)NC(=O)c1nccc(OC)c1OC(C)=O (centres unmarked) [Compound 583]
The pest or weed control at 100 ppm of the first is lower: under 25% for the first, 25 to 74% for the second.

First: CSc1nnc(C(=O)N[C@H]2COC(=O)[C@H](Cc3ccccc3)[C@@H](OC(=O)C(C)C)[C@H](C)OC2=O)c(O)n1 [Compound 547]
Second: COc1ccc(O)c(C(=O)NC2COC(=O)[C@H](Cc3ccccc3)[C@@H](OC(=O)C(C)C)[C@H](C)OC2=O)n1 (some centres unmarked) [Compound 481]
The pest or weed control at 100 ppm of the first is higher: 25 to 74% for the first, under 25% for the second.

`Cc1nc(O)c(C(=O)N[C@H]2COC(=O)[C@H](Cc3ccccc3)[C@@H](OC(=O)C(C)C)[C@H](C)OC2=O)cc1Cl` [Compound 531] and `O=C(Nc1ccc(Oc2ccccc2C(F)(F)F)cc1)c1nc(Br)ccc1O` [Compound 497] cannot be ordered by pest or weed control at 100 ppm: under 25% for the first, under 25% for the second.

First: CSc1nnc(C(=O)NC2CCCCCCC2)c(O)n1 [Compound 546]
Second: CC1(C)CC(NC(=O)c2nnc(O)nc2O)CC(C)(C)C1 [Compound 543]
The pest or weed control at 100 ppm of the first is higher: 25 to 74% for the first, under 25% for the second.

`COc1ccnc(C(=O)Nc2ccc(Oc3cccc(C(F)(F)F)c3)nc2)c1O` [Compound 471] and `COc1ccnc(C(=O)Nc2ccc(Oc3cc(C(F)(F)F)nc(C(F)(F)F)c3)cc2)c1O` [Compound 466] cannot be ordered by pest or weed control at 100 ppm: under 25% for the first, under 25% for the second.

First: CC1(C)CC(NC(=O)c2nccnc2O)CC(C)(C)C1 [Compound 533]
Second: CSc1ccnc(C(=O)NC2CC(C)(C)CC(C)(C)C2)c1O [Compound 477]
The pest or weed control at 100 ppm of the first is higher: 25 to 74% for the first, under 25% for the second.

`CC1(C)CC(NC(=O)c2cscc2O)CC(C)(C)C1` [Compound 554, 4-HYDROXYTHIOPHENE-N-(3,3,5,5-TETRAMETHYLCYCLOHEXYL)-3-CARBOXAMIDE] was tested, and the pest or weed control at 100 ppm was under 25%.

Reference: patent publication US6706740B2, “Fungicidal heterocyclic aromatic amides and their compositions, methods of use and preparation” (Dow AgroSciences LLC, priority 1999, dated 2004)
